The other results are listed elsewhere or left out.
Experiments:
[1] = tested on: HSkMC (human skeletal muscle cells); experiment: cytotoxicity call (relative viability < 0.9); settings: 10 µM
[2] = tested on: HepG2; experiment: cytotoxicity call (relative viability < 0.9); settings: 10 µM
[3] = tested on: S. aureus RN4220; experiment: growth inhibition call (relative growth <= 0.2); settings: 50 µM

SMILES | cytotoxicity call [1] | cytotoxicity call [2] | growth inhibition call [3]
C[C@H]1CN([C@@H](C)CO)C(=O)c2cc(NS(=O)(=O)c3cccs3)ccc2O[C@H]1CN(C)Cc1ccncc1 | inactive | inactive | inactive
CC1=NCCC2c3ccc(O)cc3NC12 (stereo unspecified) | inactive | active | inactive
COc1cccc(NC(=O)N2C[C@@H](O)COC[C@H]3O[C@H](CC(=O)NC4Cc5ccccc5C4)CC[C@@H]32)c1 | inactive | inactive | inactive
C[C@@H]1CN([C@@H](C)CO)C(=O)c2cc(NC(=O)Nc3cccc4ccccc34)ccc2O[C@@H]1CN(C)S(=O)(=O)c1ccc(F)cc1 | inactive | inactive | inactive
C[C@H](CO)N1C[C@H](C)[C@@H](CN(C)C(=O)Nc2ccccc2F)Oc2cc(C#CCN(C)C)ccc2S1(=O)=O | inactive | inactive | inactive
C[C@@H]1CN([C@@H](C)CO)C(=O)Cc2cc(NS(=O)(=O)c3ccc(F)cc3)ccc2O[C@H]1CN(C)S(=O)(=O)c1ccc(F)cc1 | inactive | inactive | inactive
C[C@@H]1CN([C@@H](C)CO)C(=O)c2cc(NS(=O)(=O)c3ccc(F)cc3)ccc2O[C@@H]1CN(C)S(C)(=O)=O | inactive | inactive | inactive
COc1ccc(-c2cnc3c(c2)C(=O)N([C@H](C)CO)C[C@@H](C)[C@H](CN(C)C(=O)C2CCOCC2)O3)cc1 | inactive | inactive | inactive
C[C@@H]1CCCCO[C@H](CN(C)C(=O)CCC(F)(F)F)[C@@H](C)CN([C@@H](C)CO)C(=O)c2cc(NC(=O)CCC(F)(F)F)ccc2O1 | inactive | inactive | inactive
CN1CCN(C(=O)C[C@@H]2CC[C@H]3[C@@H](COC[C@@H](O)CN3Cc3ccc4c(c3)OCO4)O2)CC1 | inactive | inactive | inactive
C[C@H]1CCCCO[C@H](CN(C)S(=O)(=O)c2ccc(Cl)cc2)[C@@H](C)CN([C@@H](C)CO)C(=O)c2cc(NC(=O)Nc3ccccc3)ccc2O1 | inactive | inactive | inactive
COCC(=O)Nc1ccc2c(c1)C(=O)N(C)[C@H]1CC[C@@H](CC(=O)N3CCc4ccccc4C3)O[C@H]1CO2 | inactive | inactive | inactive
CC(C)(C)c1ccc(C(=O)CCCN2CCC(OC(c3ccccc3)c3ccccc3)CC2)cc1 | active | active | inactive
O=C(N/N=C/c1ccc(CO)o1)c1ccccn1 | inactive | inactive | inactive
CC(C)NC(=O)N(C)C[C@@H]1Oc2ccc(NC(=O)CCC(F)(F)F)cc2CC(=O)N([C@@H](C)CO)C[C@@H]1C | inactive | inactive | inactive
C[C@@H]1CCCCO[C@H](CN(C)C(=O)CCC(F)(F)F)[C@H](C)CN([C@@H](C)CO)C(=O)c2cc(NS(=O)(=O)c3ccc(F)cc3)ccc2O1 | inactive | inactive | inactive
COc1ccc2c3c(n(c2c1)C)[C@H](CO)N(C[C@]13CCN(CC1)S(=O)(=O)C)C(=O)CN(C)C | inactive | inactive | inactive
O=C(CN1CCOCC1)N[C@@H]1CC[C@@H](CCNC(=O)C2CCC2)O[C@@H]1CO | inactive | inactive | inactive
C[C@@H]1CCCCO[C@H](CN(C)S(=O)(=O)c2ccc(F)cc2)[C@@H](C)CN([C@@H](C)CO)C(=O)c2cc(NC(=O)CCC(F)(F)F)ccc2O1 | inactive | inactive | inactive

SMILES | cytotoxicity call [1] | cytotoxicity call [2] | growth inhibition call [3]
COc1ccc(NC(=O)N(C)C[C@@H]2Oc3ccc(NS(C)(=O)=O)cc3C(=O)N([C@H](C)CO)C[C@@H]2C)cc1 | inactive | inactive | inactive
CCC(=O)Nc1ccc2c(c1)OC[C@@H](C)N(S(=O)(=O)c1cn(C)cn1)C[C@@H](C)[C@H](OC)CN(C)C2=O | inactive | inactive | inactive
COc1ccc(S(=O)(=O)N(C)C[C@H]2Oc3ccc(NS(=O)(=O)c4c(C)noc4C)cc3C(=O)N([C@@H](C)CO)C[C@H]2C)cc1 | inactive | inactive | inactive
C=CC[C@@H](CC(=O)NCCO)C(=O)N[C@@H](COC(=O)[C@H](CC=C)CC(=O)OC(C)(C)C)Cc1ccccc1 | inactive | inactive | inactive
COC(=O)c1c(CC[C@@H](CO)NC(=O)N[C@@H](C)Cn2cc(C3(O)CCCCC3)nn2)oc(C(C)=O)c1C(=O)OC | inactive | inactive | inactive
C[C@@H]1CN([C@@H](C)CO)C(=O)c2cc(NC(=O)Cn3cnnn3)ccc2O[C@@H]1CN(C)Cc1ccc(-c2ccccc2)cc1 | inactive | inactive | inactive
O=C(C=Cc1ccccc1)c1ccc(O)cc1O | inactive | inactive | inactive
Cc1noc(C)c1NC(=O)N(C)C[C@@H]1Oc2ccc(NS(=O)(=O)c3cccs3)cc2CC(=O)N([C@H](C)CO)C[C@H]1C | inactive | inactive | inactive
CC(=O)N(C)C[C@@H]1Oc2ncc(C#C[C@@H](C)O)cc2C(=O)N([C@@H](C)CO)C[C@H]1C | inactive | inactive | inactive
Cc1noc(C)c1NC(=O)Nc1ccc2c(c1)CC(=O)N([C@H](C)CO)C[C@H](C)[C@H](CN(C)Cc1ccc(Cl)c(Cl)c1)O2 | inactive | inactive | inactive
C[C@H](CO)N1C[C@H](C)[C@H](CN(C)C)Oc2ccc(NS(=O)(=O)c3ccc(Cl)cc3)cc2CC1=O | inactive | inactive | inactive
C[C@H](CO)N1C[C@H](C)[C@@H](CN(C)Cc2ccc(Oc3ccccc3)cc2)Oc2ccc(NC(=O)Cc3ccccc3)cc2CC1=O | inactive | inactive | inactive
CO[C@@H](C(=O)N(C)C[C@H]1OCc2ccccc2-c2c(n(C)c3ccccc23)C(=O)N([C@H](C)CO)C[C@H]1C)c1ccccc1 | inactive | inactive | inactive
CC(C)(C)OC(=O)Nc1cccc([C@@H]2CC(=O)N(C(=O)OCc3ccccc3)[C@@H]2C(=O)Nc2cccc3cccnc23)c1 | inactive | inactive | inactive
C[C@H]1CCCCO[C@@H](CN(C)C(=O)C2CCCCC2)[C@@H](C)CN([C@@H](C)CO)C(=O)c2cc(NS(=O)(=O)c3ccccc3)ccc2O1 | inactive | inactive | inactive
C[C@H](CO)N1C[C@H](C)[C@@H](CN(C)Cc2ccc3c(c2)OCO3)Oc2ccc(NC(=O)CCCN(C)C)cc2CC1=O | inactive | inactive | inactive
CC(C)c1nc(C(=O)N2CCC[C@@H](N)CC2)cs1 | inactive | inactive | inactive
CC(=O)N1CCC(C(=O)N2CCC(n3cc(C(C)(C)N)nn3)CC2)CC1 | inactive | inactive | inactive
COc1ccccc1C#Cc1ccc2c(c1)O[C@@H](CN(C)C(C)=O)[C@H](C)CN([C@H](C)CO)S2(=O)=O | inactive | inactive | inactive

SMILES | cytotoxicity call [1] | cytotoxicity call [2] | growth inhibition call [3]
N#CCC(=O)Nc1ccncc1 | inactive | inactive | inactive
CCS(=O)(=O)Nc1ccc2c(c1)C(=O)N(C)C[C@@H](OC)[C@H](C)CN(Cc1nccs1)[C@@H](C)CO2 | inactive | inactive | inactive
COc1ccc2c3c(n(c2c1)C)[C@@H](CO)N(C[C@]13CCN(CC1)S(=O)(=O)c1cn(cn1)C)C(=O)Nc1ccc(cc1)F | inactive | inactive | inactive
CCOC(=O)NNc1nncc2ccccc12.Cl | inactive | inactive | inactive
COc1ccc(NC(=O)N(C)C[C@@H]2OCCCC[C@H](C)Oc3ccc(NC(=O)Nc4ccc(F)cc4)cc3C(=O)N([C@@H](C)CO)C[C@@H]2C)cc1 | inactive | inactive | inactive
C[C@H]1CN([C@@H](C)CO)C(=O)Cc2cc(NS(=O)(=O)c3ccc(F)cc3)ccc2O[C@H]1CN(C)Cc1ccncc1 | inactive | inactive | inactive
Cn1c(=O)[nH]c(=O)c2c1nc(N1CCN(CCO)CC1)n2CCC#N | inactive | inactive | inactive
Cc1noc(C)c1NC(=O)N(C)C[C@H]1OCCCC[C@@H](C)Oc2ccc(NC(=O)C3CCCCC3)cc2C(=O)N([C@H](C)CO)C[C@H]1C | inactive | inactive | inactive
CO[C@H](CN(C)S(=O)(=O)c1ccc(F)cc1)[C@@H](C)CN([C@@H](C)CO)S(=O)(=O)c1cccc(Cl)c1 | inactive | inactive | inactive
C[C@H](CO)N1C[C@H](C)[C@@H](CN(C)S(C)(=O)=O)Oc2c(cccc2N(C)C)C1=O | inactive | inactive | inactive
Nn1c(=S)[nH]c2cc(C(=O)O)ccc2c1=O | inactive | inactive | inactive
C[C@H](CO)N1C[C@H](C)[C@H](CN(C)Cc2ccncc2)Oc2ccc(NS(=O)(=O)c3ccccc3)cc2CC1=O | inactive | inactive | inactive
Cc1noc(C)c1NC(=O)Nc1ccc2c(c1)C(=O)N([C@H](C)CO)C[C@H](C)[C@H](CN(C)C(=O)Nc1cccc3ccccc13)OCCCC[C@@H](C)O2 | inactive | inactive | inactive
C[C@H](CO)N1C[C@H](C)[C@@H](CN(C)Cc2ccc(C(=O)Nc3ccccc3N)cc2)Oc2c(NS(=O)(=O)c3cn(C)cn3)cccc2C1=O | inactive | inactive | inactive
NCC[C@H]1CC[C@H](NC(=O)C2CCCCC2)[C@@H](CO)O1 | inactive | inactive | inactive
C[C@H]1CN([C@@H](C)CO)S(=O)(=O)c2ccc(C#Cc3ccccc3F)cc2O[C@H]1CN(C)C(=O)Cc1ccncc1 | inactive | inactive | inactive
C[C@@H]1CN([C@H](C)CO)C(=O)c2cc(NS(=O)(=O)c3ccc(Cl)cc3)ccc2O[C@@H]1CN(C)Cc1ccc(C(=O)Nc2ccccc2N)cc1 | inactive | inactive | inactive
COC(=O)[C@H]1CN(C)CCC1=O | inactive | inactive | inactive
C[C@@H]1CN([C@H](C)CO)C(=O)c2cc(NC(=O)CCC(F)(F)F)ccc2O[C@@H](C)CCCCO[C@@H]1CN(C)S(=O)(=O)c1ccc(F)cc1 | inactive | inactive | inactive
